In PubChem BioAssay AID360 (National Center for Advancing Translational Sciences (NCATS), 2006):
Screen size: about 48,000 compounds; about 550 (1.1%) were called active. Roughly 4% stayed inconclusive and do not appear here. Rule as the data show it: active = potency below about 15 µM; inconclusive = mostly about 16 µM to 33 µM; inactive = weaker than that. This is one part of the list.

Biological target: Lysosomal acid glucosylceramidase (Homo sapiens) (UniProt P04062)
Assay: Glucocerebrosidase;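 also: the screen sought inhibitors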
Conditions: purified enzyme, resorufin glucoside fluorescence (screen aimed at inhibitors), 20 min
Summary of the method: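 Compounds titrated against 0.2 nM normal enzyme, 30 uM resorufin beta-D-glucopyranoside substrate, citrate/phosphate buffer with taurocholate and tween-20, pH 5.9. Reaction ran 20 min at room temperature; fluorescence (Ex 548/Em 600) gave AC50.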
Potency is read from the fitted curve at half-maximal effect.

UniProt P04062, sequence (P04062 whole entry, looked up): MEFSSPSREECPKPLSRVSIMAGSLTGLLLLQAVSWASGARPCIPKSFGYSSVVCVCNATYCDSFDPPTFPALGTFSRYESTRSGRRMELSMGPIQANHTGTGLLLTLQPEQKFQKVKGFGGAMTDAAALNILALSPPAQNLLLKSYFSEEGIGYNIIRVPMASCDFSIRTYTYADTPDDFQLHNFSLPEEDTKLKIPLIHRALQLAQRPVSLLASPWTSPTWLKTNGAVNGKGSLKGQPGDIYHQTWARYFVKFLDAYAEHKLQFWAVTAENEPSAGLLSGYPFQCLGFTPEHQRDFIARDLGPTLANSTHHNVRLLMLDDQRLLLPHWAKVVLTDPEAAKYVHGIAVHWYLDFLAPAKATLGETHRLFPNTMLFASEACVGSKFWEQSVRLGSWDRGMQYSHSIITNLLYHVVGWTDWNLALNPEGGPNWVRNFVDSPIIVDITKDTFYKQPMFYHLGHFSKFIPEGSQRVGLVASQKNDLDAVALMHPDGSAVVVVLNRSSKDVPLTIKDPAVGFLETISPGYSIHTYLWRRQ

Row | Structure (SMILES) | Potency
1 | COCCn1nnnc1CN1CCC(NC(=O)c2ccc(Br)cc2)CC1 | inactive: > 76.9 µM
2 | COc1ccccc1-c1nc(C(F)(F)F)c(OC)o1 | inactive: > 76.9 µM
3 | Cc1noc(C)c1COC(=O)c1cccc(S(=O)(=O)N2CCCCCC2)c1 | inactive: > 76.9 µM
4 | Cc1ccc2c(c1)c(C)c(C)n2CC(O)CN1CCOCC1 (stereo not drawn) | inactive: > 76.9 µM
5 | CCn1c(SCC(=O)Nc2cc(C)on2)nc2c(c1=O)SC(C)C2 (stereo not drawn) | inactive: > 76.9 µM
6 | Cc1ccc(N2CC(C(=O)OCc3ccccc3F)CC2=O)cc1 (stereo not drawn) | inactive: > 76.9 µM
7 | Cc1ccc(C(C(=O)NC2CCCCC2)N(C(=O)c2csnn2)C2CC2)o1 (stereo not drawn) | inactive: > 76.9 µM
8 | CCN(CC)S(=O)(=O)c1ccc(Cl)c(C(=O)Oc2cccnc2)c1 | inactive: > 76.9 µM
9 | CC(O)c1nc2ccc(Cc3ccc4nc(C(C)O)[nH]c4c3)cc2[nH]1 (stereo not drawn) | inactive: > 76.9 µM
10 | COc1ccc(CCN(C(=O)c2ccccc2)C2=CC3CCC(C2)N3C)cc1OC (stereo not drawn) | inactive: > 76.9 µM
11 | Cc1ccc2cc(CN(CCN3CCCC3)C(=O)Nc3ccccc3)c(=O)[nH]c2c1C | inactive: > 76.9 µM
12 | COc1ccccc1Nc1nc(N)nc(CN2CCN(c3ccccc3)CC2)n1 | active: 6.8 µM
13 | CCc1nc2sc3ccccc3c(=O)c2c(=O)n1Cc1ccco1 | inactive: > 76.9 µM
14 | C=CCNC(=O)c1ccccc1NC(=O)Nc1ccccc1 | inactive: > 76.9 µM
15 | CCCc1[nH]nc2c1C(c1ccc(OC(=O)N3CCOCC3)cc1)C(C#N)=C(N)O2 (stereo not drawn) | inactive: > 76.9 µM
16 | O=C(NCc1ccccn1)c1cc(-n2cnnc2)ccc1Cl | inactive: > 76.9 µM
17 | CCOC(=O)C1CCN(C(=O)c2c(-c3c(Cl)cccc3Cl)noc2C)CC1 | inactive: > 76.9 µM
18 | CCCc1cc(Nc2cccc(OC)c2)n2ncnc2n1 | inactive: > 76.9 µM
19 | COc1cccc(CN(C)CC(=O)NC(=O)NCc2ccco2)c1 | inactive: > 76.9 µM
20 | CCOC(=O)N1CCN(CCC(=O)Nc2ccc(C)c(Br)c2)CC1 | inactive: > 76.9 µM
21 | CCOC(=O)c1sc(NC(=O)CSc2nnnn2-c2ccccc2)c(C(=O)OCC)c1C | inactive: > 76.9 µM
22 | O=C(Cn1ccc2ccccc2c1=O)NCCC(=O)N1CCN(C(=O)c2ccco2)CC1 | inactive: > 76.9 µM

Row | Structure (SMILES) | Potency
23 | COc1cc2c(cc1OC)CN(C(=O)c1ccccc1C(=O)O)CC2 | inactive: > 76.9 µM
24 | N#C/C=C1\Sc2ccccc2C(=O)N1CC(=O)N1CCN(S(=O)(=O)c2ccccc2)CC1 | inactive: > 76.9 µM
25 | CCCCn1c(SCC(=O)Nc2nnc(C(C)C)s2)nc2c1c(=O)n(C)c(=O)n2C | inactive: > 76.9 µM
26 | c1ccc(Cn2nnc3cnccc32)cc1 | inactive: > 76.9 µM
27 | C=COCCNC(=O)Nc1ccc(Cl)c(Cl)c1 | inactive: > 76.9 µM
28 | CCOC(=O)N1CCC(NS(=O)(=O)c2cc3c(cc2C)NC(=O)CO3)CC1 | inactive: > 76.9 µM
29 | Cc1ccc(C2/C(=C(\O)c3c(C)nc4ccccn34)C(=O)C(=O)N2CCCN2CCOCC2)o1 (stereo not drawn) | inactive: > 76.9 µM
30 | COc1ccc(C)cc1NC(=O)c1ccc(S(=O)(=O)N2CCOCC2)cc1 | inactive: > 76.9 µM
31 | Cc1[nH]nc2c1-c1nc3ccccc3nc1C(C)(C)C2 | inactive: > 76.9 µM
32 | COc1ccc(-c2cnnn2-c2ccc(NC(=O)c3ccco3)cc2)cc1OC | inactive: > 76.9 µM
33 | Cc1nnc(NC(=O)CSc2nnc(-c3ccoc3C)n2CC(C)C)s1 | inactive: > 76.9 µM
34 | O=C(Nc1cccc(NC(=O)N2CCN(c3ccccc3)CC2)c1)N1CCN(c2ccccc2)CC1 | inactive: > 76.9 µM
35 | C=CCn1c(N)c(S(=O)(=O)c2cccs2)c2nc3ccccc3nc21 | inactive: > 76.9 µM
36 | Cc1nc(SCC(=O)Nn2c(-c3ccccc3)nc3ccccc3c2=O)n[nH]1 | inactive: > 76.9 µM
37 | COc1ccc(C2C(C(=O)c3ccco3)=C(O)C(=O)N2CCc2ccccc2)cc1OC (stereo not drawn) | inactive: > 76.9 µM
38 | COc1ccc(CN2CN(C(C)C)CSC2=S)cc1 | inactive: > 76.9 µM
39 | Cc1ccc(-c2nc3ccccc3c(=O)n2CCN2CCOCC2)cc1 | inactive: > 76.9 µM
40 | Cc1cc(C)c(NC(=O)c2ccc(S(=O)(=O)N(C)C)cc2)c(C)n1 | inactive: > 76.9 µM
41 | CN1CCCC(OC(=O)COc2ccc(Br)cc2)C1 (stereo not drawn) | inactive: > 76.9 µM
42 | CCC(=O)N1CCN(c2ccc(NC(=O)c3ccc4c(c3)OCO4)cc2)CC1 | inactive
43 | Cc1cc(C)nc(N2C(=O)CC(C(C)c3ccccc3)C2=O)n1 (stereo not drawn) | inactive: > 76.9 µM
44 | CCc1nnc(NC(=O)Cn2ccc(C(F)(F)F)n2)s1 | inactive

Row | Structure (SMILES) | Potency
45 | O=C(CNS(=O)(=O)c1ccc(Br)s1)N1CCN(c2ncccn2)CC1 | inactive: > 76.9 µM
46 | COc1ccc(OC)c(NC(=O)c2cc(-c3ccc(C)cc3O)n[nH]2)c1 | inactive: > 76.9 µM
47 | Clc1ccccc1OCc1nc(-c2ccccn2)no1 | inactive: > 76.9 µM
48 | O=C(CN1C2CCC1CC(NC(=O)C1CC1)C2)NCc1ccccc1 (stereo not drawn) | inactive: > 76.9 µM
49 | Cc1ccc(-c2nnn(CCC(=O)NC3CCCC3)n2)cc1 | inactive: > 76.9 µM
50 | Cc1cc(C)nc(N2CCCC(C(=O)NC3CCCC3)C2)n1 (stereo not drawn) | inactive: > 76.9 µM
51 | Cc1cc(NC(=O)COc2ccccc2)n(-c2ccccc2)n1 | inactive: > 76.9 µM
52 | O=C(NCCc1ccccc1)C1CCN(S(=O)(=O)c2ccc(-c3nn[nH]n3)cc2)CC1 | inactive: > 76.9 µM
53 | O=C(CNS(=O)(=O)c1ccc(C(=O)N2CCCCC2)cc1)N1CCCCC1 | inactive: > 76.9 µM
54 | COc1ccc2cc(CN(CCO)C(=O)c3ccccc3F)c(=O)[nH]c2c1 | inactive: > 76.9 µM
55 | COC(=O)c1cc(OC)c(OC)c(OC)c1NC(=O)c1ccc(S(=O)(=O)N(C)C)cc1 | inactive: > 76.9 µM
56 | COc1ccc(N(CC(=O)NC2CCCC2)C(=O)CCC(=O)Nc2cc(C)on2)c(OC)c1 | inactive: > 76.9 µM
57 | CCC1Oc2ccc(C)cc2N(CC(=O)NCc2cc(OC)ccc2OC)C1=O (stereo not drawn) | inactive: > 76.9 µM
58 | CN(C)CCN1C(=O)c2oc3ccccc3c(=O)c2C1c1ccc(F)cc1 (stereo not drawn) | inactive: > 76.9 µM
59 | c1ccc(-c2nc(N3CCCCCC3)c3ccccc3n2)nc1 | inactive: > 76.9 µM
60 | CC(=O)[C@@H]1[C@@H]2C(=O)N(c3ccc(F)c(Cl)c3)C(=O)[C@@H]2C2c3ccccc3C=CN21 (stereo partly drawn) | inactive: > 76.9 µM
61 | COc1ccc(OC)c(S(=O)(=O)N2CCC(C(=O)Nc3cccc(C(F)(F)F)c3)CC2)c1 | inactive: > 76.9 µM
62 | C=CCNS(=O)(=O)c1ccc(OCC(=O)OCC)cc1 | inactive: > 76.9 µM
63 | COC(=O)C1(S(=O)(=O)c2ccc(C)cc2)CCOCC1 | inactive: > 76.9 µM
64 | COCC(=O)Nc1cccc(C(F)(F)F)c1 | inactive: > 76.9 µM
65 | CC(NC(=O)C1CCN(S(=O)(=O)N2CCCCCC2)CC1)c1ccccc1 (stereo not drawn) | inactive: > 76.9 µM
66 | CCOC(=O)c1[nH]c(C)c(C(=O)NCc2ccccn2)c1C | inactive: > 76.9 µM

Row | Structure (SMILES) | Potency
67 | O=C(NCc1ccc2c(c1)OCO2)c1ccc(COc2cccc(Cl)c2)o1 | inactive: > 76.9 µM
68 | C=CCn1c(O)c(C(CC)=Nc2ccccc2NC(=O)CC)c(=O)[nH]c1=O | inactive: > 76.9 µM
69 | O=c1c2ccccc2nc(SCc2cc(F)cc3c2OCOC3)n1Cc1ccco1 | inactive: > 76.9 µM
70 | Cc1cc(NS(=O)(=O)c2ccc(NC(=O)Cc3cccs3)cc2)no1 | inactive: > 76.9 µM
71 | CN(CC(=O)N1CCN(c2ccccc2)CC1)S(=O)(=O)c1cnc[nH]1 | inactive: > 76.9 µM
72 | COc1ccc(CN(C(=O)c2ccco2)c2ccc(C)cc2)cc1OC | inactive: > 76.9 µM
73 | CCOC(=O)Cc1[nH]nc2c1C(c1cccc(OC)c1OC)C(C#N)=C(N)O2 (stereo not drawn) | inactive: > 76.9 µM
74 | CCCc1cc(=O)oc2cc(Oc3ncccn3)ccc12 | inactive: > 76.9 µM
75 | O=C(NCc1cccs1)C1CCN(S(=O)(=O)c2ccc(Br)s2)CC1 | inactive: > 76.9 µM
76 | CCOC(=O)N1CCC(Nc2c(-c3ccc(C)c(C)c3)c(=O)c2=O)CC1 | inactive: > 76.9 µM
77 | CCOC(=O)CNc1c(-c2ccc(O)cc2)nc2ccc(Cl)cn12 | active: 4.11 µM
78 | Cc1cc(-c2ccco2)c(C#N)c2nc3ccccc3n12 | inactive: > 76.9 µM
79 | COc1ccc(C(=O)N2CCCC(c3nc(-c4cc(OC)c(OC)c(OC)c4)no3)C2)cc1 (stereo not drawn) | inactive: > 76.9 µM
80 | c1coc(-c2nnc(SCc3cn4ccccc4n3)o2)c1 | inactive: > 76.9 µM
81 | CCCCS(=O)(=O)Nc1ccc(C(=O)NCC2CCCO2)cc1 (stereo not drawn) | inactive: > 76.9 µM
82 | O=C(Cn1nnc(-c2ccccc2F)n1)Nc1ccc2c(c1)OCO2 | inactive: > 76.9 µM
83 | CCn1c(SCC(=O)c2c(N)n(C)c(=O)n(C)c2=O)nc2sc(C)c(C)c2c1=O | inactive: > 76.9 µM
84 | O=c1c2c3c(sc2nc2sc(CN4CCOCC4)cn12)CCCC3 | inactive: > 76.9 µM
85 | CCCN1Cc2cccc(C(=O)NC3CCCC3)c2C1=O | inactive: > 76.9 µM
86 | O=C(c1ccco1)N1CCN(C(=O)c2ccc(Cn3cc(Br)cn3)o2)CC1 | inactive: > 76.9 µM
87 | Cc1cc(Cl)c(S(=O)(=O)NCCC(=O)O)cc1OCC(N)=O | inactive: > 76.9 µM
88 | Cc1ccnc(NC(=O)COc2ccc3oc4c(c3c2)CCCC4)c1 | inactive: > 76.9 µM
